The text below walks through data of article PMC4336329 (PLoS ONE, 2015).

SMILES strings stand for the structures. Hit rate of the full screen: of about 310,000 compounds, about 2,200 (0.71%) showed an effect of 50% or more. The effect is printed as a negative number. The list shows a part of the results.

Sequence of human ether-à-go-go-related gene (hERG) potassium channel (Q12809 whole entry, looked up): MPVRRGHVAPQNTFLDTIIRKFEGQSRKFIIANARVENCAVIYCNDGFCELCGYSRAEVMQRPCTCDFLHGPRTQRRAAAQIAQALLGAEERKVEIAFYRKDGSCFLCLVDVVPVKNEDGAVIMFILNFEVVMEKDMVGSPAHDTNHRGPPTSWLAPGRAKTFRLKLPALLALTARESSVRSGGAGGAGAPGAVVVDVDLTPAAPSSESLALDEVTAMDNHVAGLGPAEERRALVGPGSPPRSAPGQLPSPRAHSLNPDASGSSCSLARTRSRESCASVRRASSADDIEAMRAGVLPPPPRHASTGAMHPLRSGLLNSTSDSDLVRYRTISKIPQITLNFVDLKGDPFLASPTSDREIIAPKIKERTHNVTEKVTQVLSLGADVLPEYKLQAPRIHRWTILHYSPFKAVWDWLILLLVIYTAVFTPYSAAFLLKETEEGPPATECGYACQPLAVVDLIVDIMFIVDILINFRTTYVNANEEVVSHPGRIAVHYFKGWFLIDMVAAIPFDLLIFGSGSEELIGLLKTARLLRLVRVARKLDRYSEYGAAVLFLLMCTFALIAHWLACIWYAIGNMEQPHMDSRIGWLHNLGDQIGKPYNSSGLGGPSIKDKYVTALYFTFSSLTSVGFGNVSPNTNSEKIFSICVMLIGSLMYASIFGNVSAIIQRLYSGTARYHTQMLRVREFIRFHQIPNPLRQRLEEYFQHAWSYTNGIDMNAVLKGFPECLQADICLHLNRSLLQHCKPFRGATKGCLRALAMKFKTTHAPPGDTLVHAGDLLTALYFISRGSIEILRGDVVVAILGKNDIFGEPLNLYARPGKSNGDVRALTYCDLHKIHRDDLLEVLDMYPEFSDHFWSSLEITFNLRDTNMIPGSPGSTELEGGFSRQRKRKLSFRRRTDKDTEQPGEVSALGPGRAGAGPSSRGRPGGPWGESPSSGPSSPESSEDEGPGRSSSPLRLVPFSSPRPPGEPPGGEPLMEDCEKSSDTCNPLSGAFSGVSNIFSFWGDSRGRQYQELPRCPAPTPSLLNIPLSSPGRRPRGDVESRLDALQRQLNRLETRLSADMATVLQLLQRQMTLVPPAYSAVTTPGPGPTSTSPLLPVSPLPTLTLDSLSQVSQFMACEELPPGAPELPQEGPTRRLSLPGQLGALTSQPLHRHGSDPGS

The experiment addresses human ether-à-go-go-related gene (hERG) potassium channel (human, UniProt Q12809). As to the kind of experiment: primary screen, population patch clamp on CHO cells stably expressing hERG.
Turning to `COc1ccc(N=Nc2c(C)[nH][nH]c2=O)cc1`, the “hERG current change (%, negative = inhibition) at 1uM” value is given as 12.9%. For `CCN1CCCC1CNS(=O)(=O)c1cccc(C(F)(F)F)c1.Cl` (stereo not shown), the “hERG current change (%, negative = inhibition) at 1uM” value is reported as 5.04%.

For `COc1cccc(/C=N/NC(=S)Nc2cccc(C(=O)O)c2)c1`, the “hERG current change (%, negative = inhibition) at 1uM” value is reported as 17.3%.

For `CCOC(=O)C(=O)NNc1cccc(C)c1C`, the “hERG current change (%, negative = inhibition) at 1uM” value came out at 10.6%. As to `CC1(C)CC2(CCCN(CC(O)(c3ccccc3)c3ccccc3)C2)CCO1.Cl` (stereo not shown), the “hERG current change (%, negative = inhibition) at 1uM” value amounted to 5.53%. As for `CCOc1ccc(NC(=S)N2CCN(c3ccc(N4CCOCC4)nn3)CC2)cc1`, the figure is -6.57%; as for `O=C(NCCN1C(=O)S/C(=C/c2cccnc2)C1=O)C1=NN(c2ccccc2)C(=O)CC1`, 4.43%. With `CC(CNC(=O)c1ccccc1Cl)c1ccccc1` (stereo not shown) the figure was 16.1%; with `Cc1cc(C(=O)c2ccc3ccccc3c2)c(C)o1`, 12.2%; with `CCOC(=O)c1ccccc1NC(=O)c1cccs1`, 9.12%. `Cc1cccc(N(C)S(=O)(=O)c2ccc3c(c2)CCC(=O)N3)c1`: the “hERG current change (%, negative = inhibition) at 1uM” value was -2.14%.

In the case of `Cc1cccc(C2=NN(c3ccc(Br)cc3)[C@@H](C(=O)N3CCOC3=O)[C@@H]2c2ccc(F)cc2)c1`, the “hERG current change (%, negative = inhibition) at 1uM” value came out at 20.8%. On to `CCN1CCN(C(=O)CN2C(=O)c3cccc4cccc2c34)CC1`, for which the “hERG current change (%, negative = inhibition) at 1uM” value came out at 3.87%. As to `COc1ccc(N2CCc3c(C)nc4c(OC)cc(OC)cc4c32)cc1`, the “hERG current change (%, negative = inhibition) at 1uM” value is recorded as -52.7%. In the case of `O=C(NN=C1CCCC1)c1[nH]c2ccc(Br)cc2c1-c1ccccc1`, the “hERG current change (%, negative = inhibition) at 1uM” value amounted to 11.4%.

In the case of `COc1ccc(C2c3[nH]c4ccccc4c3CCN2CCCn2cccn2)c(F)c1` (stereo not shown), the “hERG current change (%, negative = inhibition) at 1uM” value is on record as 9.27%. Regarding `Cc1cccn2c(=O)c3cc(C(=O)NC4CCCC4)c(=N)n(CCCN4CCOCC4)c3nc12`, the “hERG current change (%, negative = inhibition) at 1uM” value is recorded as -77.5%.

For `CCO[C@@H]1OC(C(=O)NC2CC2)=C[C@H](C)[C@H]1CCCO`, the “hERG current change (%, negative = inhibition) at 1uM” value is on record as 9.28%. `CCOC(=O)CNS(=O)(=O)c1cc(-c2nn(C)c(=O)c3ccccc23)ccc1C`: the “hERG current change (%, negative = inhibition) at 1uM” value was determined as 1.3%. Consider `CCOC(=O)c1ccccc1NC(=O)Cn1cnc2c1c(=O)n(C)c(=O)n2C`, for which the “hERG current change (%, negative = inhibition) at 1uM” value came out at 10.8%. With `Cc1nc(-n2nnc(CO)c2CO)nc2c1CCC2` the figure was 11.9%; with `CCN(CC)CCC(=O)Nc1cccc2c1C(=O)c1ccccc1C2=O.Cl`, -7.36%. For the compound `Cc1cc(C(F)(F)F)nn1CC(=O)N(C)c1ccccc1`, the “hERG current change (%, negative = inhibition) at 1uM” value is listed as 13.1%. `O=C1/C(=C/c2ccccn2)COc2ccccc21`: the “hERG current change (%, negative = inhibition) at 1uM” value is given as -1.54%.

In the case of `COc1ccc(N2C(=O)C3CCCN3C2c2ccccc2F)cc1` (stereo not shown), the “hERG current change (%, negative = inhibition) at 1uM” value is 6.38%.
